Among the data in PMC9911399, “Two distinct binding modes provide the RNA-binding protein RbFox with extraordinary sequence specificity” are binding signal values, retold here.

Positions count from the first letter of the chain named. The list shows a part of the results.

The labels stand for the following.
T1: RBFOX1 RRM (Homo sapiens, UniProt Q9NWB1 109-208)
T1 sequence: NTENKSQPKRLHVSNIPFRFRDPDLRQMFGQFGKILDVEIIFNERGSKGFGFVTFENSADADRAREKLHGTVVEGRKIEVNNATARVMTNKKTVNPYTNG

B1: UAUUGCU (DNA:RNA)
RNA: GGGAGACCGGAAUUCAGAUUGUCCUAUUGCUUUAAAUCCCGUCGUAGCCACCA
DNA 1: CAATCTGAATTCCGGTCTCCC
DNA 2: TGGTGGCTACGACGGGATT
B2: UCCUUUU (DNA:RNA)
RNA: B1 RNA with A26C, U27C, G29U, C30U
DNA 1: CAATCTGAATTCCGGTCTCCC
DNA 2: TGGTGGCTACGACGGGATT
B3: GCGGGAU (DNA:RNA)
RNA: B1 RNA with U25G, A26C, U27G, U28G, C30A
DNA 1: CAATCTGAATTCCGGTCTCCC
DNA 2: TGGTGGCTACGACGGGATT
B4: CGGCUUC (DNA:RNA)
RNA: GGGAGACCGGAAUUCAGAUUGUCCCGGCUUCUUAAAUCCCGUCGUAGCCACCA
DNA 1: CAATCTGAATTCCGGTCTCCC
DNA 2: TGGTGGCTACGACGGGATT
B5: GCAUGAA (DNA:RNA)
RNA: B1 RNA with U25G, A26C, U27A, C30A, U31A
DNA 1: CAATCTGAATTCCGGTCTCCC
DNA 2: TGGTGGCTACGACGGGATT
B6: GCUAACA (DNA:RNA)
RNA: B1 RNA with U25G, A26C, U28A, G29A, U31A
DNA 1: CAATCTGAATTCCGGTCTCCC
DNA 2: TGGTGGCTACGACGGGATT
B7: GAACUCA (DNA:RNA)
RNA: B4 RNA with C25G, G26A, G27A, U30C, C31A
DNA 1: CAATCTGAATTCCGGTCTCCC
DNA 2: TGGTGGCTACGACGGGATT
B8: CUAGUUU (DNA:RNA)
RNA: B4 RNA with G26U, G27A, C28G, C31U
DNA 1: CAATCTGAATTCCGGTCTCCC
DNA 2: TGGTGGCTACGACGGGATT
B9: CAGUGAC (DNA:RNA)
RNA: B4 RNA with G26A, C28U, U29G, U30A
DNA 1: CAATCTGAATTCCGGTCTCCC
DNA 2: TGGTGGCTACGACGGGATT
B10: AGUGCCU (DNA:RNA)
RNA: B1 RNA with U25A, A26G, U28G, G29C
DNA 1: CAATCTGAATTCCGGTCTCCC
DNA 2: TGGTGGCTACGACGGGATT
B11: AGUAUUA (DNA:RNA)
RNA: B4 RNA with C25A, G27U, C28A, C31A
DNA 1: CAATCTGAATTCCGGTCTCCC
DNA 2: TGGTGGCTACGACGGGATT
B12: AUAACCU (DNA:RNA)
RNA: B1 RNA with U25A, A26U, U27A, U28A, G29C
DNA 1: CAATCTGAATTCCGGTCTCCC
DNA 2: TGGTGGCTACGACGGGATT
B13: UGUAGAA (DNA:RNA)
RNA: B1 RNA with A26G, U28A, C30A, U31A
DNA 1: CAATCTGAATTCCGGTCTCCC
DNA 2: TGGTGGCTACGACGGGATT
B14: CAUACGA (DNA:RNA)
RNA: B1 RNA with U25C, U28A, G29C, C30G, U31A
DNA 1: CAATCTGAATTCCGGTCTCCC
DNA 2: TGGTGGCTACGACGGGATT
B15: AGGUAAG (DNA:RNA)
RNA: B4 RNA with C25A, C28U, U29A, U30A, C31G
DNA 1: CAATCTGAATTCCGGTCTCCC
DNA 2: TGGTGGCTACGACGGGATT
B16: GGCUCUG (DNA:RNA)
RNA: B4 RNA with C25G, G27C, C28U, U29C, C31G
DNA 1: CAATCTGAATTCCGGTCTCCC
DNA 2: TGGTGGCTACGACGGGATT
B17: UACGUGC (DNA:RNA)
RNA: B4 RNA with C25U, G26A, G27C, C28G, U30G
DNA 1: CAATCTGAATTCCGGTCTCCC
DNA 2: TGGTGGCTACGACGGGATT
B18: UUGCAGC (DNA:RNA)
RNA: B4 RNA with C25U, G26U, U29A, U30G
DNA 1: CAATCTGAATTCCGGTCTCCC
DNA 2: TGGTGGCTACGACGGGATT
B19: AGCGACG (DNA:RNA)
RNA: B4 RNA with C25A, G27C, C28G, U29A, U30C, C31G
DNA 1: CAATCTGAATTCCGGTCTCCC
DNA 2: TGGTGGCTACGACGGGATT
B20: ACGGCAC (DNA:RNA)
RNA: B4 RNA with C25A, G26C, C28G, U29C, U30A
DNA 1: CAATCTGAATTCCGGTCTCCC
DNA 2: TGGTGGCTACGACGGGATT
B21: GAAGGUC (DNA:RNA)
RNA: B4 RNA with C25G, G26A, G27A, C28G, U29G
DNA 1: CAATCTGAATTCCGGTCTCCC
DNA 2: TGGTGGCTACGACGGGATT
B22: GUUGCGC (DNA:RNA)
RNA: B4 RNA with C25G, G26U, G27U, C28G, U29C, U30G
DNA 1: CAATCTGAATTCCGGTCTCCC
DNA 2: TGGTGGCTACGACGGGATT
B23: AACGGAA (DNA:RNA)
RNA: B1 RNA with U25A, U27C, U28G, C30A, U31A
DNA 1: CAATCTGAATTCCGGTCTCCC
DNA 2: TGGTGGCTACGACGGGATT
B24: AAUUCGU (DNA:RNA)
RNA: B1 RNA with U25A, G29C, C30G
DNA 1: CAATCTGAATTCCGGTCTCCC
DNA 2: TGGTGGCTACGACGGGATT
B25: AUAAUUC (DNA:RNA)
RNA: B4 RNA with C25A, G26U, G27A, C28A
DNA 1: CAATCTGAATTCCGGTCTCCC
DNA 2: TGGTGGCTACGACGGGATT
B26: UACUUCG (DNA:RNA)
RNA: B1 RNA with U27C, G29U, U31G
DNA 1: CAATCTGAATTCCGGTCTCCC
DNA 2: TGGTGGCTACGACGGGATT
B27: GACACUU (DNA:RNA)
RNA: B1 RNA with U25G, U27C, U28A, G29C, C30U
DNA 1: CAATCTGAATTCCGGTCTCCC
DNA 2: TGGTGGCTACGACGGGATT
B28: UUGACAC (DNA:RNA)
RNA: B4 RNA with C25U, G26U, C28A, U29C, U30A
DNA 1: CAATCTGAATTCCGGTCTCCC
DNA 2: TGGTGGCTACGACGGGATT
B29: UUCCGGU (DNA:RNA)
RNA: B1 RNA with A26U, U27C, U28C, C30G
DNA 1: CAATCTGAATTCCGGTCTCCC
DNA 2: TGGTGGCTACGACGGGATT
B30: CAUCGUC (DNA:RNA)
RNA: B4 RNA with G26A, G27U, U29G
DNA 1: CAATCTGAATTCCGGTCTCCC
DNA 2: TGGTGGCTACGACGGGATT
B31: UGAGCGA (DNA:RNA)
RNA: B4 RNA with C25U, G27A, C28G, U29C, U30G, C31A
DNA 1: CAATCTGAATTCCGGTCTCCC
DNA 2: TGGTGGCTACGACGGGATT

The target of the experiment is T1, RBFOX1 RRM. As to the kind of experiment: EMSA; HiTS-Eq, 1 nM pool, 10 min; buffer printed only for the single-RNA assays: 10 mM Tris pH 7.5, 150 mM NaCl, 3.4 mM EDTA, 0.001% NP-40, 30 C. To be noted: tags: His6 N-terminal (pET28a); label: 5' 32P. The procedure, abridged: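 A pool of RNA with 7 randomized nucleotides, 5′-radiolabelled and with DNA-annealed flanks, was equilibrated at 1 nM for 10 min in 50 µL with purified RbFox RRM, wild type or mutant, across increasing protein concentrations. Free RNA was separated by 8% native PAGE, excised, reverse-transcribed, barcoded by PCR and sequenced. Relative association constants were obtained from read-count changes of each RNA species versus the control reaction and normalised to the cognate motif.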
A general note: In EMSA bound probe runs differently from free probe, usually more slowly.
On to B1, for which the binding signal is 0.0153 KA relative to UGCAUGU.
On to B2, for which the binding signal was 0.0102 KA relative to UGCAUGU.
Then B3, with 0.0486 KA relative to UGCAUGU.
Take B4: the binding signal is 0.0146 KA relative to UGCAUGU.
Turning to B5, the binding signal was 0.594 KA relative to UGCAUGU.
Then B6, with 0.00537 KA relative to UGCAUGU; and B7, with 0.00414 KA relative to UGCAUGU.
On to B8, for which the binding signal is 0.0103 KA relative to UGCAUGU.
With B9, the binding signal is 0.00375 KA relative to UGCAUGU.
Turning to B10, the binding signal is 0.0094 KA relative to UGCAUGU.
Turning to B11, the binding signal is 0.00298 KA relative to UGCAUGU.
B12: the binding signal is 0.00153 KA relative to UGCAUGU.
Turning to B13, the binding signal was 0.0196 KA relative to UGCAUGU.
B14: the binding signal is 0.0051 KA relative to UGCAUGU.
For the molecule B15, the binding signal is 0.0109 KA relative to UGCAUGU.
On to B16, for which the binding signal is 0.0188 KA relative to UGCAUGU.
Take B17: the binding signal was 0.0234 KA relative to UGCAUGU.
Then B18, with 0.0161 KA relative to UGCAUGU; and B19, with 0.0146 KA relative to UGCAUGU.
Regarding B20, the binding signal was 0.0132 KA relative to UGCAUGU.
With B21, the binding signal is 0.0116 KA relative to UGCAUGU.
With B22, the binding signal was 0.0245 KA relative to UGCAUGU.
For the molecule B23, the binding signal is 0.00432 KA relative to UGCAUGU.
On to B24, for which the binding signal was 0.0086 KA relative to UGCAUGU.
Then B25, with 0.0031 KA relative to UGCAUGU; and B26, with 0.0208 KA relative to UGCAUGU; and B27, with 0.00769 KA relative to UGCAUGU.
With B28, the binding signal was 0.0073 KA relative to UGCAUGU.
The value for B29 was 0.00729 KA relative to UGCAUGU; that for B30 was 0.00528 KA relative to UGCAUGU.
As to B31, the binding signal is 0.0174 KA relative to UGCAUGU.
